For 2 compounds, viability, T/C results are on record in PubChem BioAssay AID1963451 (Molecular Pharmacology Branch, DTP, NCI, 2024).

A number of entries come with more than one value. This list holds those alone. An entry can have further records. The values listed for one entry repeat one measurement (runs, samples, wells, individuals or studies). Signs of the kind (2×) give the number of equal values in this list.

The test system of the test is 521955-158-R6-J3-PDC complex spheroid growth, % test/control. Kind of test: Anticancer human tumor 521955-158-R6-J3-PDC patient-derived pancreatic carcinoma cell line growth inhibition [Asc]. The note with it: stronger effect = lower value. The procedure: Multicellular complex tumor spheroid response to apoptosis pathway targeting inhibitors Alrizomadlin, Pelcitoclax, and Dasminapant in combination with a variety of drugs and investigational agents in selected tumor cell lines
The MDM2 inhibitor alrizomadlin, the Bcl-2/Bcl-xL inhibitor pelcitoclax, and the IAPs inhibitor dasminapant were evaluated both individually and in combination with standard of care and investigational anticancer small molecules within a complex spheroid model of solid tumors. . Complex spheroids include a stromal component modeled by human endothelial cells (HUVEC) and fibroblasts modeled by human mesenchymal stem cells (MSCs). The concentration ranges selected for each drug and investigational agent were based upon clinically achievable concentrations if the clinical Cmax of the agent was known.
Compounds. The drugs and investigational agents: alrizomadlin (APG-115; NSC831270), pelcitoclax (APG-1252; NSC835773), dasminapant (APG-1387;NSC834197), TAK-243 (NSC785004), copanlisib (NSC809693), olaparib (NSC753686), talazoparib (NSC767125), cobimetinib (NSC 768068), eltanexor (KPT-8602, NSC 794443), abemaciclib (NSC 768073), sotorasib (NSC818433), adagrasib (NSC 831453), MRTX-1133 (NSC 836407), Iadademestat (ORY1001, NSC 806812), and RMC-4630 (NSC839698), were obtained from the NCI Developmental Therapeutics Program Chemical Repository. The FDA-approved anticancer drug set is available from the Developmental Therapeutics Program at https://dtp.cancer.gov/organization/dscb/obtaining/available plates.htm. […] The stock solutions were prepared in dimethyl sulfoxide (DMSO, Sigma-Aldrich, St. Louis, MO, cat. D2650) at 800-fold the tested concentration and stored at -70 degrees C prior to their use. All drugs and investigational agents were tested over a range starting from a high concentration at or near the clinical Cmax and decreasing in half-log increments. If the clinical Cmax for an agent had not been determined, the highest concentration tested was 10 microM.
The patient-derived cancer (PDC) cell lines include five colon adenocarcinomas: 186277-243-T-J2-PDC, 616215-338-R-J1-PDC, 439559-082-T-J2-PDC, 463943-066-T-J2-PDC, and 519858-162-T-J1-PDC; three pancreatic carcinomas: 323965-272-R-J2-PDC, 521955-158-R6-J3-PDC, and 521955-158-R2-J5-PDC; two uterine sarcomas: 327498-152-R-J2-PDC and 993429-296-R-J1-PDC; two rhabdomyosarcomas: 755483-174-R-J1-PDC and 772245-204-R-J1-PDC; two soft tissue sarcomas: 126254-015-R-J1-PDC and 494315-158-R-J1-PDC; two malignant fibrous histiocytomas: 317291-083-R-J1-PDC and 596521-263-R-J1-PDC; two breast carcinomas: 171881-019-R-J1-PDC and 885512-296-R-J2-PDC; and one ovarian carcinoma: 6556581-035-R-J-PDC were obtained from the NCI PDMR, (https://pdmr.cancer.gov). The established cell lines HSSY-2 synovial sarcoma (RRID:CVCL 8719), SYO-1 synovial sarcoma (RRID:CVCL_7146), MPNST malignant peripheral neural sheath tumor were obtained from the Sloan Kettering Institute. The following established cell lines were purchased from the American Type Culture Collection (ATCC, Manassas, VA), Sor the received from the NCI repository:, PANC-1 pancreatic carcinoma (CRL-1469, RRID:CVCL_0480), OVCAR-5 ovarian carcinoma (RRID:CVCL_1628), OVCAR-8 ovarian carcinoma (RRID:CVCL_1629), , MCF-7 breast carcinoma (CRL-12584, RRID:CVCL_0031), MDA-MB-231 breast carcinoma (CRL-12532, RRID:CVCL_0062), NCI-H1876 small cell lung carcinoma (CRL-5902, RRID:CVCL_1503), NCI-H510A small cell lung carcinoma (HTB-184, RRID:CVCL_1565), NCI-H1417 (CRL-5869, RRID:CVCL_1469), and NCI-H196 small cell lung carcinoma (CRL-5823, RRID:CVCL_1509). Dr. Peter Houghton (Greehey Children's Cancer Research Institute, University of Texas Health Science Center, San Antonio, TX) provided Rh-18 rhabdomyosarcoma (RRID:CVCL_1659). Pooled donor human umbilical vein endothelial cells (HUVEC, Lonza, cat. CC-2519) and human mesenchymal stem cells (hMSC, Lonza, cat. PT-2501) were purchased from Lonza (Walkersville, MD).
Cell Culture. […]
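Also: spheroids exposed to compounds for 7 days; 100% = DMSO vehicle control wells.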

In the case of `CNC(C)C(=O)NC1CN(S(=O)(=O)c2cccc(S(=O)(=O)N3CCC4CCC(C(=O)NC(c5ccccc5)c5ccccc5)N4C(=O)C(NC(=O)C(C)NC)C3)c2)CCC2CCC(C(=O)NC(c3ccccc3)c3ccccc3)N2C1=O` (stereo unspecified), the viability, T/C by setting is: (compound alone 0.00316 µM) 100 (2×), 105, 152, 153, 130, 90.7, 90.3, 85.7%; (compound alone 0.01 µM) 88.9, 94.2, 145, 93.3, 71.7, 83.2, 106, 82.9, 90.5%; (compound alone 0.0316 µM) 92.2, 101, 84.7, 90.8, 70.5, 78.4, 98.9, 80.6, 78.8%; (compound alone 0.1 µM) 93.9, 91.5, 86.5, 124, 78.9, 100, 93, 98.9, 87.7%; (compound alone 0.316 µM) 104, 86.2, 94.5 (2×), 100, 76.9, 91.3, 95.2, 90%; (compound alone 1 µM) 80.7, 81.7, 88.7, 96.6, 71.6, 88.4, 103, 87.9, 88.8%.

On to `CCN1C(C(=O)NC23CCC(C(=O)O)(CC2)CC3)C(c2cccc(Cl)c2F)C2(C(=O)Nc3cc(Cl)ccc32)C12CCCCC2` (stereo unspecified), for which the viability, T/C (compound alone 0.00949 µM) is given as 95.8, 100, 90, 86.9, 92.5, 106, 105, 108, 82.7%; the viability, T/C (compound alone 0.03 µM) was 101, 96.5, 86.5, 83.2, 89.1, 106, 95.7, 104, 114%; the viability, T/C (compound alone 0.0949 µM) is 111, 113, 97.1, 101 (2×), 104, 102, 92.5, 85.4%; the viability, T/C (compound alone 0.949 µM) is recorded as 105, 128, 114, 123, 125, 124, 148, 108, 115%; the viability, T/C (compound alone 3 µM) is given as 123, 98.1, 109, 100, 104, 135, 113, 117, 102%.
